Measured values as given in US20210330611A1, “THERAPY FOR NEUROLOGICAL DISEASES/DISORDERS” (priority 2020, published 2021).
Counter-ions that a name gives are not always drawn. Like-named read-outs stand apart in the source and are kept apart here.

How the values were obtained:
[1] = tested on: fibrin-induced microglia activation; test: Image-based assay of fibrin-induced microglia activation (HTS and dose response); type: cell-based, rat; settings: for inhibition at 10 µM: Rattus norvegicus, Microglia, read-out: Fibrin % inhibition
[2] = tested on: LPS-induced microglia activation; test: Image-based assay of LPS-induced microglia activation (HTS and dose response); type: cell-based, rat; settings: for inhibition at 10 µM: Rattus norvegicus, Microglia, read-out: LPS % inhibition

Row | SMILES | inhibition at 10 µM [1] | inhibition at 10 µM [2] | other results
1 | CC(C)OC(=O)C(C)(C)Oc1ccc(C(=O)c2ccc(Cl)cc2)cc1 [Fenofibrate] | -37% | 0% | 
2 | CN1C2CCCC1CC(NC(=O)c1nn(C)c3ccccc13)C2 (centres unmarked) [Granisetron Hydrochloride] |  |  | Fibrin % inhibition [1]: −1%; LPS % inhibition [2]: 14%
3 | CN1C2CCCC1CC(NC(=O)c1nn(C)c3ccccc13)C2 (centres unmarked) [Granisetron] |  |  | Fibrin % inhibition [1]: −38%; LPS % inhibition [2]: 4%
4 | CN1Cc2c(N)cccc2C(c2ccccc2)C1 (centres unmarked) [Nomifensine] | -12% |  | inhibition at 10 µM ([2]; 48 h): 13%
5 | COc1cccc(C2(O)CCCCC2CN(C)C)c1 (centres unmarked) [Tramadol Hydrochloride] |  |  | Fibrin % inhibition ([1]; 10 µM): 35%; LPS % inhibition ([2]; 10 µM): 21%
6 | COc1cccc(C2(O)CCCCC2CN(C)C)c1 (centres unmarked) [Tramadol] | 26% | 12% | 
7 | O=C(CCCCCCC(=O)Nc1ccccc1)NO [Vorinostat] | 112% | 112% | 
